Measured values taken from the supplement of paper PMC12217912.
This is one part of the list. The full chains were built here from the parent and the listed change. Values near 0.05 are background.

B1: TEV protease; numbered along this chain (parent)
chain: MGESLFKGPRDYNPISSSICHLTNESDGHTTSLYGIGFGPFIITNKHLFRRNNGTLVVQSLHGVFKVKDTTTLQQHLVDGRDMIIIRMPKDFPPFPQKLKFREPQREERICLVTTNFQTKSMSSMVSDTSCTFPSGDGIFWKHWIQTKDGQCGSPLVSTRDGFIVGIHSASNFTNTNNYFTSVPKNFMELLTNQEAQQWVSGWRLNADSVLWGGHKVFMVKPEEPFQPVKEATQL

Variants of: B1
Experiment: raw area under fraction-flipped curve 0-4 h after induction (AUC4h, not background-subtracted), DNA-recorder readout of cleavage of the substrate (dimensionless); higher = more cleavage of the substrate by the protease variant
Settings: temperature: 34 °C; time window: 0-4 h after rhamnose induction
Description: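 In vivo DNA recorder in E. coli TOP10(DE3) ΔrhaA at 34 °C. Each TEVp single-site mutant (parent TEVp 0) is paired with a single-site variant of the 7-mer TEVs (canonical ENLYFQ|S). The substrate sits between flexible linkers in a Bxb1-sfGFP-TEVs-SsrA fusion, so cleavage stabilises Bxb1 and speeds flipping of a recombination array, read by NGS. The value is the raw area under the fraction-flipped curve over 0-4 h after rhamnose induction (AUC4h), with ≥20 reads per time point. It is not background-subtracted; inactive controls average about 0.047.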
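Further: Bxb1 expression induced with 0.2% (w/v) L-rhamnose at OD600 near 0.5, cultures sampled hourly, flipped fraction per protease–substrate barcode pair counted by paired-end Illumina sequencing.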

Variant | area with substrate ENLYFAS | area with substrate ENLYFCS | area with substrate ENLYFDS | area with substrate ENLYFES | area with substrate ENLYFFS | area with substrate ENLYFGS | area with substrate ENLYFHS | area with substrate ENLYFIS | area with substrate ENLYFKS | area with substrate ENLYFLS | area with substrate ENLYFMS | area with substrate ENLYFNS | area with substrate ENLYFPS | area with substrate ENLYFRS | area with substrate ENLYFSS | area with substrate ENLYFTS | area with substrate ENLYFVS | area with substrate ENLYFWS | area with substrate ENLYFYS
MGESLFKGPRDYNPISSSICHLTNESDGHTTSLYGIGFGPFIITNKHLFRRNNGTLVVQSLHGVFKVKDTTTLQPHLVDGRDMIIIRMPKDFPPFPQKLKFREPQREERICLVTTNFQTKSMSSMVSDTSCTFPSGDGIFWKHWIQTKDGQCGSPLVSTRDGFIVGIHSASNFTNTNNYFTSVPKNFMELLTNQEAQQWVSGWRLNADSVLWGGHKVFMVKPEEPFQPVKEATQL [Q75P] | 0.0616 | 0.0537 | 0.0554 | 0.0585 | 0.0637 | 0.0586 | 0.0794 | 0.0472 | 0.0549 | 0.0555 | 0.0599 | 0.0438 | 0.0486 | 0.0537 | 0.0557 | 0.0579 | 0.0636 | 0.0479 | 0.0581
MGESLFKGPRDYNPISSSICHLTNESDGHTTSLYGIGFGPFIITNKHLFRRNNGTLVVQSLHGVFKVKDTTTLQQHLVDTRDMIIIRMPKDFPPFPQKLKFREPQREERICLVTTNFQTKSMSSMVSDTSCTFPSGDGIFWKHWIQTKDGQCGSPLVSTRDGFIVGIHSASNFTNTNNYFTSVPKNFMELLTNQEAQQWVSGWRLNADSVLWGGHKVFMVKPEEPFQPVKEATQL [G80T] | 0.0527 | 0.0639 | – | 0.0649 | 0.0706 | 0.0711 | – | 0.056 | 0.0596 | – | 0.0608 | 0.0629 | 0.0548 | 0.0513 | 0.0575 | 0.0531 | – | 0.0464 | –
MGESLFKGPRDYNPISSSICHLTNESDGHTTSLYGIGFGPFIITNKHLFRRNNGTLVVQSLHGVFKVKDTTTLQQHLVDNRDMIIIRMPKDFPPFPQKLKFREPQREERICLVTTNFQTKSMSSMVSDTSCTFPSGDGIFWKHWIQTKDGQCGSPLVSTRDGFIVGIHSASNFTNTNNYFTSVPKNFMELLTNQEAQQWVSGWRLNADSVLWGGHKVFMVKPEEPFQPVKEATQL [G80N] | 0.0424 | 0.0619 | 0.0465 | 0.117 | 0.0609 | 0.0549 | 0.0527 | 0.0439 | – | – | 0.0668 | 0.0657 | 0.0531 | – | – | 0.0627 | 0.0559 | – | –
MGESLFKGPRDYNPISSSICHLTNESDGHTTSLYGIGFGPFIITNKHLFRRNNGTLVVQSLHGVFKVKDTTTLQQHLVDPRDMIIIRMPKDFPPFPQKLKFREPQREERICLVTTNFQTKSMSSMVSDTSCTFPSGDGIFWKHWIQTKDGQCGSPLVSTRDGFIVGIHSASNFTNTNNYFTSVPKNFMELLTNQEAQQWVSGWRLNADSVLWGGHKVFMVKPEEPFQPVKEATQL [G80P] | 0.0617 | – | – | 0.107 | – | – | – | 0.0603 | – | – | 0.0521 | – | 0.0484 | – | – | – | – | – | –
MGESLFKGPRDYNPISSSICHLTNESDGHTTSLYGIGFGPFIITNKHLFRRNNGTLVVQSLHGVFKVKDTTTLQQHLVDCRDMIIIRMPKDFPPFPQKLKFREPQREERICLVTTNFQTKSMSSMVSDTSCTFPSGDGIFWKHWIQTKDGQCGSPLVSTRDGFIVGIHSASNFTNTNNYFTSVPKNFMELLTNQEAQQWVSGWRLNADSVLWGGHKVFMVKPEEPFQPVKEATQL [G80C] | 0.0514 | 0.069 | 0.0641 | 0.0584 | 0.0712 | – | 0.0457 | 0.0558 | – | – | 0.0713 | – | 0.0487 | 0.0586 | – | 0.058 | – | 0.0519 | 0.0601
MGESLFKGPRDYNPISSSICHLTNESDGHTTSLYGIGFGPFIITNKHLFRRNNGTLVVQSLHGVFKVKDTTVLQQHLVDGRDMIIIRMPKDFPPFPQKLKFREPQREERICLVTTNFQTKSMSSMVSDTSCTFPSGDGIFWKHWIQTKDGQCGSPLVSTRDGFIVGIHSASNFTNTNNYFTSVPKNFMELLTNQEAQQWVSGWRLNADSVLWGGHKVFMVKPEEPFQPVKEATQL [T72V] | 0.0611 | – | 0.077 | 0.0654 | 0.0705 | – | – | 0.0476 | 0.0577 | 0.0559 | 0.0639 | 0.0604 | 0.0582 | – | 0.0485 | 0.0592 | 0.0197 | – | 0.068
MGESLFKGPRDYNPISSSICHLTNESDGHTTSLYGIGFGPFIITNKHLFRRNNGTLVVQSLHGVFKVKDTTTLQQHLVDGRDMIIIRWPKDFPPFPQKLKFREPQREERICLVTTNFQTKSMSSMVSDTSCTFPSGDGIFWKHWIQTKDGQCGSPLVSTRDGFIVGIHSASNFTNTNNYFTSVPKNFMELLTNQEAQQWVSGWRLNADSVLWGGHKVFMVKPEEPFQPVKEATQL [M88W] | 0.0488 | 0.0525 | 0.0817 | 0.0676 | 0.0607 | – | 0.056 | – | 0.0502 | 0.0601 | 0.0608 | 0.0611 | – | – | – | 0.0574 | – | 0.0453 | 0.0365
MGESLFKGPRDYNPISSSICHLTNESDGHTTSLYGIGFGPFIITNKHLFRRNNGTLVVQSLHGVFKVKDTTTLQQHLVDGRDMIIIREPKDFPPFPQKLKFREPQREERICLVTTNFQTKSMSSMVSDTSCTFPSGDGIFWKHWIQTKDGQCGSPLVSTRDGFIVGIHSASNFTNTNNYFTSVPKNFMELLTNQEAQQWVSGWRLNADSVLWGGHKVFMVKPEEPFQPVKEATQL [M88E] | 0.0337 | – | – | 0.0453 | 0.0581 | – | – | 0.0646 | 0.0636 | 0.0567 | 0.0859 | 0.0403 | 0.0481 | – | – | 0.056 | – | 0.0596 | –
MGESLFKGPRDYNPISSSICHLTNESDGHTTSLYGIGFGPFIITNKHLFRRNNGTLVVQSLHGVFKVKDTTTLQQHLVDGRDMIIIRHPKDFPPFPQKLKFREPQREERICLVTTNFQTKSMSSMVSDTSCTFPSGDGIFWKHWIQTKDGQCGSPLVSTRDGFIVGIHSASNFTNTNNYFTSVPKNFMELLTNQEAQQWVSGWRLNADSVLWGGHKVFMVKPEEPFQPVKEATQL [M88H] | 0.0421 | – | – | 0.0414 | 0.0434 | – | – | – | – | – | 0.0244 | – | – | – | 0.0504 | 0.0471 | 0.0256 | 0.0365 | 0.0448
